Test results taken from publication PMC6506465.
No constants are given. Whether binding was seen depends on the method and setting. In cells and extracts the contact can be indirect. Some results given as binding are weak or reduced against the parent protein; the word gives no strength. Where a sequence is shown, tags or fusion partners need not be part of it. Each block holds one molecule with its values, some of them ahead of it.

Sequences of proteins named here, by UniProt entry; tags and fusion partners are left off.
UniProt P0C1Q2: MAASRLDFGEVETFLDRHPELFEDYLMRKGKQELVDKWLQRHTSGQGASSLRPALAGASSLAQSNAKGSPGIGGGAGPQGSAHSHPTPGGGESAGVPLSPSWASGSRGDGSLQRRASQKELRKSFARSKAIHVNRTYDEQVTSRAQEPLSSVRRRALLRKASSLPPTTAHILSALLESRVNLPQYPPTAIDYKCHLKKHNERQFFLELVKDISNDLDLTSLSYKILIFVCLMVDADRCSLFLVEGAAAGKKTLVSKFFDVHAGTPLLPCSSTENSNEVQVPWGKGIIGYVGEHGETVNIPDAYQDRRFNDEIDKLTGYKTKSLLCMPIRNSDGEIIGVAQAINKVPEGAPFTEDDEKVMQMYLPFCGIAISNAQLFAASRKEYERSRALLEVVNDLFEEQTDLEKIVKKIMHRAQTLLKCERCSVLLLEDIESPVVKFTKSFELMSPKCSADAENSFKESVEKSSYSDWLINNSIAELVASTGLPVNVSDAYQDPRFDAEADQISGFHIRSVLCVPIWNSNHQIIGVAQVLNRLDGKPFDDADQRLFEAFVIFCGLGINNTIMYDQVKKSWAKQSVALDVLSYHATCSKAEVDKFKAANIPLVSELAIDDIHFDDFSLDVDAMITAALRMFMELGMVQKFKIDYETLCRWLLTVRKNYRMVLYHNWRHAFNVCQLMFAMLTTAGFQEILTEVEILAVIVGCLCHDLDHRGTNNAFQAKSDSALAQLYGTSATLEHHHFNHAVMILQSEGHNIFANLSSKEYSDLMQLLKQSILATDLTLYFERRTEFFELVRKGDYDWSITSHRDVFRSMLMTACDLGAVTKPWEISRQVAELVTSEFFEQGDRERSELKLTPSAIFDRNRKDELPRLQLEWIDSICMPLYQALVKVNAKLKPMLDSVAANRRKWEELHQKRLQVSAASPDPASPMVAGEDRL

How the values were obtained:
Flag-NEURL1 = target: T1, Flag-NEURL1 (UniProt Q923S6); experiment: co-IP; proteins co-expressed in HEK293-FT cells; lysis in 20 mM Tris HCl pH 7.4, 200 mM NaCl, 1 mM EDTA, 0.5% NP-40; precipitation by the tags (V5- or Flag-agarose, E2 antibody on Protein A sepharose) overnight at +4 °C; immunoblot
T1 sequence: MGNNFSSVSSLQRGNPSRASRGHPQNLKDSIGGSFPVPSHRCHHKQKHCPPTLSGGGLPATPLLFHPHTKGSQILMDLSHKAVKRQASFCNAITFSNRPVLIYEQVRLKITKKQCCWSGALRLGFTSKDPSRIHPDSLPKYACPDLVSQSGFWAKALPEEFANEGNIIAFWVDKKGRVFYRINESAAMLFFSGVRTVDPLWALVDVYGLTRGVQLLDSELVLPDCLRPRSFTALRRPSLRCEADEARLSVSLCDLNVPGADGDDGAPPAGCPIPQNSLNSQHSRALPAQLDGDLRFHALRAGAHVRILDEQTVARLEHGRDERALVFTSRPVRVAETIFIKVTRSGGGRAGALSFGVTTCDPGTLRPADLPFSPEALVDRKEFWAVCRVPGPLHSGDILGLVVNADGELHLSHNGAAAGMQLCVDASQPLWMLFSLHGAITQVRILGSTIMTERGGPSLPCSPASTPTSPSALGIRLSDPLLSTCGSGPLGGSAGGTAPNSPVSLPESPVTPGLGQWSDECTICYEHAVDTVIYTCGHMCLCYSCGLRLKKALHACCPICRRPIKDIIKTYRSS

[1] = target: T2, endogenous NEURL1 (human (endogenous in HEK293-FT)) (UniProt O76050); experiment: co-IP; HEK293-FT cells expressing PDE9A-V5His with or without untagged NEURL1; precipitation with custom-raised polyclonal NEURL1 antibodies on Protein A sepharose; immunoblot with V5 antibody
T2 sequence: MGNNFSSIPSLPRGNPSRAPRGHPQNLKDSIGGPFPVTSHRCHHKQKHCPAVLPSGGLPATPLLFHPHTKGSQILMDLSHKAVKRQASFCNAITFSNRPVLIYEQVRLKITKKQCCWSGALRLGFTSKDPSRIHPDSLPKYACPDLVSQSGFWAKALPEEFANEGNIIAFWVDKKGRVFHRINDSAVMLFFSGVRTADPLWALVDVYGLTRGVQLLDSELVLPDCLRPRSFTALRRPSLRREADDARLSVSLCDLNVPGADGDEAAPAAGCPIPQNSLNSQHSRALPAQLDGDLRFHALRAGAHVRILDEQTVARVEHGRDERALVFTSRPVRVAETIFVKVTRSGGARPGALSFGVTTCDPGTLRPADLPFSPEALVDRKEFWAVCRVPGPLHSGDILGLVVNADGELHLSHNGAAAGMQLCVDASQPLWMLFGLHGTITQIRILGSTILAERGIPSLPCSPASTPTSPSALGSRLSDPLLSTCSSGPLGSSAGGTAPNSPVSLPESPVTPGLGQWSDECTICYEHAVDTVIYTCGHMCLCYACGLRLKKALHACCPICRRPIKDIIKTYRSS

Flag-NEURL1B (human) = target: T3, Flag-NEURL1B (human) (UniProt A8MQ27); experiment: co-IP; proteins co-expressed in HEK293-FT cells; lysis in 20 mM Tris HCl pH 7.4, 200 mM NaCl, 1 mM EDTA, 0.5% NP-40; precipitation by the tags (V5- or Flag-agarose, E2 antibody on Protein A sepharose) overnight at +4 °C; immunoblot
T3 sequence: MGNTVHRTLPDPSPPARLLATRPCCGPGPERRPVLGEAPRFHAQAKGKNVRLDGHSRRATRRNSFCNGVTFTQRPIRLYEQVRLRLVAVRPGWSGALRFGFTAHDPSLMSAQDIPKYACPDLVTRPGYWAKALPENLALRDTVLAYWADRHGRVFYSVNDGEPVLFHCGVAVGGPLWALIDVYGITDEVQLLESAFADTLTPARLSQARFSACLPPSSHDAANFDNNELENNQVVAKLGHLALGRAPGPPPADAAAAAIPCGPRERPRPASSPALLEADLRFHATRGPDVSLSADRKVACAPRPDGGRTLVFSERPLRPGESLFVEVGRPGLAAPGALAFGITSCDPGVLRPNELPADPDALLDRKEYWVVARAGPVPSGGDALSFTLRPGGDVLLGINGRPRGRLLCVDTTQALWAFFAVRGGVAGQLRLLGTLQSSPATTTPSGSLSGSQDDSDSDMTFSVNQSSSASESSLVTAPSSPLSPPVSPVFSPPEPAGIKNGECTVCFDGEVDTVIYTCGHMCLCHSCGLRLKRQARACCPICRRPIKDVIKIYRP

NEURL1-Flag = target: T4, NEURL1-Flag (UniProt Q923S6); experiment: as above
T4 sequence: T1 sequence

PDE9A-V5His (rat) = target: T5, PDE9A-V5His (rat) (UniProt Q8QZV1); experiment: as above
T5 sequence: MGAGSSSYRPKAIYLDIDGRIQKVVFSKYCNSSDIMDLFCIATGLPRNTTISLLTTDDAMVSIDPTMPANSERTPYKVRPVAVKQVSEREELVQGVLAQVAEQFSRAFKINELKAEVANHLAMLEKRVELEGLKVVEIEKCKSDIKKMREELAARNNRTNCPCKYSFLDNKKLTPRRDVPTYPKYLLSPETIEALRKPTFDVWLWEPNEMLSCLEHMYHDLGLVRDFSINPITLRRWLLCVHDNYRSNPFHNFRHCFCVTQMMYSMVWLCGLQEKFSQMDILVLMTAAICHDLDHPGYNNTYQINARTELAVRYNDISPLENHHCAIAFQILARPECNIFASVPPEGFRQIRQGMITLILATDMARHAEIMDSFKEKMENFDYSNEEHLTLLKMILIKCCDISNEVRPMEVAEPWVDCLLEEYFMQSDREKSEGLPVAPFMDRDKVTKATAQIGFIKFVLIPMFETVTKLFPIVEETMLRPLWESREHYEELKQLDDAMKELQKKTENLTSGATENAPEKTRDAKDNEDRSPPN

Molecule: E2-tagged PDE11A (from UniProt P0C1Q2 1-933) (enzyme)
binding (Flag-NEURL1): no binding

B3: Flag-NEURL1B (protein, UniProt A8MQ27 1-555)
chain: T3 sequence
binding (PDE9A-V5His (rat)): binds

B5: Flag-NEURL1 (protein, UniProt Q923S6 1-574)
chain: T1 sequence
binding (PDE9A-V5His (rat)): binds

B6: NEURL1-Flag (protein, UniProt Q923S6 1-574)
chain: T1 sequence
binding (PDE9A-V5His (rat)): binds

Other lines, results leading:

binding (Flag-NEURL1): binds
B1: PDE9A-E2 (enzyme, UniProt Q8QZV1 1-534)
chain: T5 sequence

binding [1]: binds | binding (Flag-NEURL1B (human)): binds | binding (Flag-NEURL1): binds | binding (NEURL1-Flag): binds
B2: PDE9A-V5His (enzyme, UniProt Q8QZV1 1-534)
chain: T5 sequence

binding (Flag-NEURL1): binds
B4: PDE9A-cat-E2 (domain or fragment, UniProt Q8QZV1 217-534)
chain: MYHDLGLVRDFSINPITLRRWLLCVHDNYRSNPFHNFRHCFCVTQMMYSMVWLCGLQEKFSQMDILVLMTAAICHDLDHPGYNNTYQINARTELAVRYNDISPLENHHCAIAFQILARPECNIFASVPPEGFRQIRQGMITLILATDMARHAEIMDSFKEKMENFDYSNEEHLTLLKMILIKCCDISNEVRPMEVAEPWVDCLLEEYFMQSDREKSEGLPVAPFMDRDKVTKATAQIGFIKFVLIPMFETVTKLFPIVEETMLRPLWESREHYEELKQLDDAMKELQKKTENLTSGATENAPEKTRDAKDNEDRSPPN
